Measured values reported in publication PMC12238530, “Dynamic SAS-6 phosphorylation aids centrosome duplication and elimination in C. elegans oogenesis” (EMBO Reports, 2025).
No constants are given. Whether binding was seen depends on the method and setting. For some assays here: In cells and extracts the contact can be indirect. Some binding calls cover weakened binding; strength is not graded here. Where a sequence is shown, tags or fusion partners need not be part of it.

Sequences of proteins named here, by UniProt entry; tags and fusion partners are left off.
UniProt P34556: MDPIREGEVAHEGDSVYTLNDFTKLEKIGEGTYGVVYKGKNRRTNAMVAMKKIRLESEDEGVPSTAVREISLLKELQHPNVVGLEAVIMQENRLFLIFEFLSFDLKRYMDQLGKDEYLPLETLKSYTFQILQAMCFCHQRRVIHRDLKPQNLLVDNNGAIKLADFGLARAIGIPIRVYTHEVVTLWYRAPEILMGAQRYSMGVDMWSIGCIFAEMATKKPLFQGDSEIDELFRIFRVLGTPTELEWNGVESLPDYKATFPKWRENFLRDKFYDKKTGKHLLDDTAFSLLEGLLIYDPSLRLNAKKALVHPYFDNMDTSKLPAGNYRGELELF

Key:
[1] = target: T1, GST-SAS-6-mCherry (C. elegans) (UniProt O62479); test: pull-down; GST fusion proteins immobilised on glutathione Sepharose 4B; precleared HEK293T lysate in P150 buffer, 4 °C, 4 h; immunoblot and CBB staining (Fig. 4C, 5G); only the target purified
T1 sequence: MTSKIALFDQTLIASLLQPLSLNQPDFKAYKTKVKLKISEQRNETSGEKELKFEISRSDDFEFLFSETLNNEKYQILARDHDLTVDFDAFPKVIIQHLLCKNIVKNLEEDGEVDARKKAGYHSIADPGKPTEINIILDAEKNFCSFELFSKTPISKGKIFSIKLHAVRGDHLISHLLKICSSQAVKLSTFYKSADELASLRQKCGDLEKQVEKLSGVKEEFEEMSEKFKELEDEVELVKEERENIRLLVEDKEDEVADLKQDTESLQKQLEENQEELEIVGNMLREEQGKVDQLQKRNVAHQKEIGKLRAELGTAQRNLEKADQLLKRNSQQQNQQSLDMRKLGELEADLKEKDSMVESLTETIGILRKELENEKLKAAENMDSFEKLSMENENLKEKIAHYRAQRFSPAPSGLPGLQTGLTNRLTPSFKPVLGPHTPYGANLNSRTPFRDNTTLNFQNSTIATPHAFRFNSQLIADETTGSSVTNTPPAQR

SAS-6-GFP (C. elegans) = target: T2, SAS-6-GFP (C. elegans) (UniProt O62479); test: co-IP; α-GFP IP from HEK293T cells co-expressing SAS-6-GFP and Myc-CDK-1; WB (Fig. 4D)
T2 sequence: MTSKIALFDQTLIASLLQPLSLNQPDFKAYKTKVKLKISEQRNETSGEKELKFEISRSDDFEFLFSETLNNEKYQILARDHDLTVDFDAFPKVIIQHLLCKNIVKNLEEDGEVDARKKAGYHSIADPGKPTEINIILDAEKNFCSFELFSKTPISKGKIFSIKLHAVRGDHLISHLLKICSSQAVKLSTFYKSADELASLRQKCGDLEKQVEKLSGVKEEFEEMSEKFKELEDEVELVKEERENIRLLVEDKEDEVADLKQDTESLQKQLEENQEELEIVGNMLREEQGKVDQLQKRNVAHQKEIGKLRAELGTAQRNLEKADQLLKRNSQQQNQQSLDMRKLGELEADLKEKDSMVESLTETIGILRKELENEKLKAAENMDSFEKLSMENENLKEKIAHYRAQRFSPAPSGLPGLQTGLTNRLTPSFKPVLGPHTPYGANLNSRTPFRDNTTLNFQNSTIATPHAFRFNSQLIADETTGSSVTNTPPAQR

GST-SAS-6-M (C. elegans) = target: T3, GST-SAS-6-M (C. elegans) (UniProt O62479); test: bead recruitment assay; bead-coupled FL or truncated SAS-6, with or without pre-phosphorylation; recruitment of HEK293T cell-expressed SAS-4-GFP seen by fluorescence (Fig. 5I); only the target purified
T3 sequence: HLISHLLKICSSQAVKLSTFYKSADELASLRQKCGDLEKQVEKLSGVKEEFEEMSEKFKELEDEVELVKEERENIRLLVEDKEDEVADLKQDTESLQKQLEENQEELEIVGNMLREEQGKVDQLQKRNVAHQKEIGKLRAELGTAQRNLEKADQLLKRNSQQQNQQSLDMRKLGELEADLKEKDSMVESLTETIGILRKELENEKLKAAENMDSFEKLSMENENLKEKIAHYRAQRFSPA

[2] = target: T4, GST-SAS-6 full-length (FL) (C. elegans, UniProt O62479 1-492); test: as above
T4 construct: SAS-6, C. elegans, full length (1-492); pGEX6P1-GST vector; also called full-length SAS-6 coupled to beads; source: E. coli BL21 (DE3), purified (Glutathione Sepharose 4B); not shown: GST, N-terminal, kept
T4 sequence (looked up): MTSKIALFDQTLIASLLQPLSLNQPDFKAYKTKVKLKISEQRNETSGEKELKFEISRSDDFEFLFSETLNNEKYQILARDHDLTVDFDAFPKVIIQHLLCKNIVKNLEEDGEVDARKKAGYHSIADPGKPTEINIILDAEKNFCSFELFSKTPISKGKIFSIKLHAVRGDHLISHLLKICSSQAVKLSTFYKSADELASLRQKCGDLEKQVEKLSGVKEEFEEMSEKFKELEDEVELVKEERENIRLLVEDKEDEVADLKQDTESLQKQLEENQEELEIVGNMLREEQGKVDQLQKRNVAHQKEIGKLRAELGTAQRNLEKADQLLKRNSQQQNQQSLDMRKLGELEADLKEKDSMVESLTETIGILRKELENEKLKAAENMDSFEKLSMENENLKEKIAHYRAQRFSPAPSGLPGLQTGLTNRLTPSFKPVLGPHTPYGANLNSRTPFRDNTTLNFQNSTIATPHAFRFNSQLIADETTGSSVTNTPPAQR

[3] = target: T5, GST-SAS-6(∆M) (C. elegans) (UniProt O62479); test: as above
T5 sequence: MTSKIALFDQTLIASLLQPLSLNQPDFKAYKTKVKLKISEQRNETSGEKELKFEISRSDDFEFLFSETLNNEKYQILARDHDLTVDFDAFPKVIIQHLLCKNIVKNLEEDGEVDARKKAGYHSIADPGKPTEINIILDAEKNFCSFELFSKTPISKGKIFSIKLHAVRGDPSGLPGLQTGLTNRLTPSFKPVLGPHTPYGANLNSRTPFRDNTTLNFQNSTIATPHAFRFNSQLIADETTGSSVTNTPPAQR

GST-SAS-6(∆N) [4] = target: T6, GST-SAS-6(∆N) (C. elegans, UniProt O62479 171-492); test: as above
T6 construct: SAS-6, C. elegans, N-terminal head domain deleted (∆1–170), so residues 171-492; also called GST-SAS-6-ΔN; source: E. coli BL21 (DE3), purified (Glutathione Sepharose 4B); not shown: GST, N-terminal, kept
T6 sequence (looked up): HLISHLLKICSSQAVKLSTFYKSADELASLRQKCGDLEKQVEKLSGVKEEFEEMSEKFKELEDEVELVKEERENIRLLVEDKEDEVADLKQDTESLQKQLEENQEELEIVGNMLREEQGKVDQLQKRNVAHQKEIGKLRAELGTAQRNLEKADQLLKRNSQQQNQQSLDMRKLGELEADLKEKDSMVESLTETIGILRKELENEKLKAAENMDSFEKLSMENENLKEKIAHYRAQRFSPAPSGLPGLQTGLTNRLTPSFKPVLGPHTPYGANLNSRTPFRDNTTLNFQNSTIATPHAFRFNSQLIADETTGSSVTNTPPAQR

[5] = target: T7, GST-SAS-6-M, pre-phosphorylated (C. elegans) (UniProt O62479); test: as above
T7 sequence (chain, pre-phosphorylated; sites on this fragment not stated): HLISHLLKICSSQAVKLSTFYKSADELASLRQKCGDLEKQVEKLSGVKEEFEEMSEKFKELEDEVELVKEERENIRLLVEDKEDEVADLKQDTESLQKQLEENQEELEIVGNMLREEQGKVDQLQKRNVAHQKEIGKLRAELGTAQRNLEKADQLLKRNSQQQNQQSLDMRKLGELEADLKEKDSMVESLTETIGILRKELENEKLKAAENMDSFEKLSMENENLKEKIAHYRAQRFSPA

[6] = target: T4, GST-SAS-6 full-length (FL); test: pull-down; GST fusion proteins immobilised on glutathione Sepharose 4B; precleared HEK293T lysate in P150 buffer, 4 °C, 4 h; immunoblot and CBB staining (Fig. 4C, 5G); only the target purified
[7] = target: T5, GST-SAS-6(∆M) (C. elegans); test: as above
GST-SAS-6(∆N) [8] = target: T6, GST-SAS-6(∆N); test: as above
SAS-4-GFP (C. elegans) = target: T8, SAS-4-GFP (C. elegans) (UniProt P34402); test: pull-down; GFP pulldown: SAS-4-GFP immunoprecipitated from HEK293T cells, incubated with purified SAS-6-C-mCherry-His with or without pre-phosphorylation by CDK1; WB (Fig. 5H); only the binder purified
T8 sequence: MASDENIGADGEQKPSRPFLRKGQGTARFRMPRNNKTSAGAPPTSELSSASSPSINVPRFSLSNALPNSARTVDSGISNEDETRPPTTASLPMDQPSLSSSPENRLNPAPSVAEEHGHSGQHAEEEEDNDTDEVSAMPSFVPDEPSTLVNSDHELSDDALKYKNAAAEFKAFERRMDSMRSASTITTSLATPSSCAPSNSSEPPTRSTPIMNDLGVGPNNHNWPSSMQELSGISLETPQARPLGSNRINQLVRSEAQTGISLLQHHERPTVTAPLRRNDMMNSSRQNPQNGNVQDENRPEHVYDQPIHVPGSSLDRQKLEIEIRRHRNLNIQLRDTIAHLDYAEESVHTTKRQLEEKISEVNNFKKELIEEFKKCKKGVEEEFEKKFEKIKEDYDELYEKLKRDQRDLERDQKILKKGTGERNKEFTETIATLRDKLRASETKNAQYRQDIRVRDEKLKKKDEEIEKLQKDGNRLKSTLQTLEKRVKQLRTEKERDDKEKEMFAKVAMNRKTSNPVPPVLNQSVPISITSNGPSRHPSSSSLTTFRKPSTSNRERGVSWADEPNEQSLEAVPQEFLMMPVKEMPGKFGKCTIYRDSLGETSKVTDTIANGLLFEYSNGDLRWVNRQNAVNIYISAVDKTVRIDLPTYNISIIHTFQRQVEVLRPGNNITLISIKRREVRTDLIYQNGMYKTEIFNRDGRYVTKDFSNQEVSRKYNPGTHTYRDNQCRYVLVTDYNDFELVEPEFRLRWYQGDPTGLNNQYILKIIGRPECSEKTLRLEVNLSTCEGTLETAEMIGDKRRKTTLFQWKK

Molecule: Myc-CDK-1 (from UniProt P34556 1-332) (enzyme)
- binding [1]: binds
- binding (SAS-6-GFP (C. elegans)): binds

B1: SAS-4-GFP (protein, UniProt P34402 1-808)
chain: MASDENIGADGEQKPSRPFLRKGQGTARFRMPRNNKTSAGAPPTSELSSASSPSINVPRFSLSNALPNSARTVDSGISNEDETRPPTTASLPMDQPSLSSSPENRLNPAPSVAEEHGHSGQHAEEEEDNDTDEVSAMPSFVPDEPSTLVNSDHELSDDALKYKNAAAEFKAFERRMDSMRSASTITTSLATPSSCAPSNSSEPPTRSTPIMNDLGVGPNNHNWPSSMQELSGISLETPQARPLGSNRINQLVRSEAQTGISLLQHHERPTVTAPLRRNDMMNSSRQNPQNGNVQDENRPEHVYDQPIHVPGSSLDRQKLEIEIRRHRNLNIQLRDTIAHLDYAEESVHTTKRQLEEKISEVNNFKKELIEEFKKCKKGVEEEFEKKFEKIKEDYDELYEKLKRDQRDLERDQKILKKGTGERNKEFTETIATLRDKLRASETKNAQYRQDIRVRDEKLKKKDEEIEKLQKDGNRLKSTLQTLEKRVKQLRTEKERDDKEKEMFAKVAMNRKTSNPVPPVLNQSVPISITSNGPSRHPSSSSLTTFRKPSTSNRERGVSWADEPNEQSLEAVPQEFLMMPVKEMPGKFGKCTIYRDSLGETSKVTDTIANGLLFEYSNGDLRWVNRQNAVNIYISAVDKTVRIDLPTYNISIIHTFQRQVEVLRPGNNITLISIKRREVRTDLIYQNGMYKTEIFNRDGRYVTKDFSNQEVSRKYNPGTHTYRDNQCRYVLVTDYNDFELVEPEFRLRWYQGDPTGLNNQYILKIIGRPECSEKTLRLEVNLSTCEGTLETAEMIGDKRRKTTLFQWKK
- binding (GST-SAS-6-M (C. elegans)): binds weakly
- binding [2]: binds
- binding [3]: no binding
- binding (GST-SAS-6(∆N) [4]): binds
- binding [5]: binds weakly
- binding [6]: binds
- binding [7]: no binding
- binding (GST-SAS-6(∆N) [8]): binds

B2: SAS-6-C-mCherry-His (domain or fragment, C. elegans, UniProt O62479 401-492, looked up)
chain: HYRAQRFSPAPSGLPGLQTGLTNRLTPSFKPVLGPHTPYGANLNSRTPFRDNTTLNFQNSTIATPHAFRFNSQLIADETTGSSVTNTPPAQR
notes: SAS-6, C. elegans, C-terminal unstructured region, residues 401-492; Cloned in pET.28a-mCherry; the primer's vector part encodes LFQGP before the NdeI site, so a further N-terminal tag may be there; also called mCherry-His tagged SAS-6 C-terminus; SAS-6 C-terminus; source: E. coli BL21 (DE3), purified (Ni-NTA); not shown: mCherry, C-terminal, kept; His, C-terminal, kept
- binding (SAS-4-GFP (C. elegans)): binds
